Source: the supplement of paper PMC7826260
The other results are listed elsewhere or left out. Viral Rep nickase domains cut single-stranded DNA in vitro (1 h at 37 °C, 3 µM enzyme); the outer parts of the 90-letter strands are left off. A value is the log2 ratio of uncut reads to the pool without enzyme; strong cutting gives strongly negative numbers. There is no active / inactive call. Counts are relative to all reads; uncut strands gain when others are lost, and binding without cutting may add a little.

Experiments:
Test in all cases: uncleaved DNA left, log2 of reads against the no-enzyme library (log2 ratio); higher = less cleavage (more negative = more Rep cleavage of the k-mer); sequences stand for … in CTCGTCCG…ACCGGAGA
[1] = tested on: T1, Rep nickase domain of Muscovy duck circovirus
T1 sequence (Rep 1-111, printed without the tag): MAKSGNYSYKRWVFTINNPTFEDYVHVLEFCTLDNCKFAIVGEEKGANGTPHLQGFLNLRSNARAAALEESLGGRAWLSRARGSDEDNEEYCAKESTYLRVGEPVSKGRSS
Protocol: (§1)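 A pool of 90-nt single-stranded DNAs with seven random bases just before the constant AC of the nick site (name = the seven bases) was cut by 3 µM recombinant His6-SUMO-tagged Rep nickase domain (300 nM DNA, 50 mM HEPES pH 8.0, 50 mM NaCl, 1 mM MnCl2, 1 h, 37 °C, three replicates). Uncut DNA was amplified and sequenced.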

[2] = tested on: T2, Rep nickase domain of banana bunchy top virus
T2 sequence (Rep 1-94, printed without the tag): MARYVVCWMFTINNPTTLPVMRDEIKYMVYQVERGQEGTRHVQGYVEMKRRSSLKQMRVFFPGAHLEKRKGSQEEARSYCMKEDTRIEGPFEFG
Protocol: as §1

[3] = tested on: T3, Rep nickase domain of cabbage leaf curl virus
T3 sequence (Rep 1-116, printed without the tag): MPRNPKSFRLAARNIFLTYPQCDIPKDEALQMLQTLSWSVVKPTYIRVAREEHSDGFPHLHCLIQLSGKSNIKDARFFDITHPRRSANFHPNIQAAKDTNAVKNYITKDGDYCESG
Protocol: as §1

[4] = tested on: T4, Rep nickase domain of chickpea chlorotic dwarf virus
T4 sequence (Rep 1-124, printed without the tag): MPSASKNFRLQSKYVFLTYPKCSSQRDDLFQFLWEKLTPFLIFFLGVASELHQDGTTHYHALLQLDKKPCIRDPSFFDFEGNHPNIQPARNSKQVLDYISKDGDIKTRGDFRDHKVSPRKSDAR
Protocol: as §1

[5] = tested on: T5, Rep nickase domain of faba bean necrotic yellows virus
T5 sequence (Rep 1-98, printed without the tag): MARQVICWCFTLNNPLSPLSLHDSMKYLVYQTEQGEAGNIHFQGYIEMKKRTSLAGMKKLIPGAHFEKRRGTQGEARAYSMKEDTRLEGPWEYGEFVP
Protocol: as §1

[6] = tested on: T6, Rep nickase domain of maize striate mosaic virus
T6 sequence (Rep 1-117, printed without the tag): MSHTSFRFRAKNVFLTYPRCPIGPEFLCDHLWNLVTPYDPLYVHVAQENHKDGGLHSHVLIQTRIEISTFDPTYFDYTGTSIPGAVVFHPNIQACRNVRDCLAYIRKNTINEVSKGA
Protocol: as §1

[7] = tested on: T7, Rep nickase domain of porcine circovirus 2
T7 sequence (Rep 2-116, printed without the tag): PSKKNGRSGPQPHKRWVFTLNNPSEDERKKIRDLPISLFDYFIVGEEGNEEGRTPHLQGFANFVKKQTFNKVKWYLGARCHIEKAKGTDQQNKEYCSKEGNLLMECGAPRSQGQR
Protocol: as §1

[8] = tested on: T8, Rep nickase domain of tomato golden mosaic virus
T8 sequence (Rep 1-124, printed without the tag): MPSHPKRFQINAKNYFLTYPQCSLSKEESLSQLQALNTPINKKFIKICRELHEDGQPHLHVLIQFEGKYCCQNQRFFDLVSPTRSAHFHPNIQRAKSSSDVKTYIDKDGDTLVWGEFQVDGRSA
Protocol: as §1

[9] = tested on: T9, Rep nickase domain of tomato yellow leaf curl virus
T9 sequence (Rep 1-136, printed without the tag): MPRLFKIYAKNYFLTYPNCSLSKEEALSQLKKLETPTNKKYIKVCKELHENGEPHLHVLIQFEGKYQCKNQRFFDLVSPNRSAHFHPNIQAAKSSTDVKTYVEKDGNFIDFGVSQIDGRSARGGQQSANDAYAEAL
Protocol: as §1

[10] = tested on: T10, Rep nickase domain of wheat dwarf virus
T10 sequence (Rep 1-137, printed without the tag): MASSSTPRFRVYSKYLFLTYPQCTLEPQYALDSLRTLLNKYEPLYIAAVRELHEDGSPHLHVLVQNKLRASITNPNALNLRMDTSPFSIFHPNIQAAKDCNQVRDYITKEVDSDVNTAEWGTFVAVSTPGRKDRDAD
Protocol: as §1

Sequence | uncleaved DNA left (log2) [1] | uncleaved DNA left (log2) [2] | uncleaved DNA left (log2) [3] | uncleaved DNA left (log2) [4] | uncleaved DNA left (log2) [5] | uncleaved DNA left (log2) [6] | uncleaved DNA left (log2) [7] | uncleaved DNA left (log2) [8] | uncleaved DNA left (log2) [9] | uncleaved DNA left (log2) [10]
TAGCATA | 0.166 | 0.172 | -0.251 | -2.14 | 0.165 | -0.25 | -1.74 | 0.0597 | 0.0654 | 0.122
TGTCTCG | -0.0257 | -0.171 | -0.747 | -0.493 | -0.0896 | -1.09 | 0.0152 | -0.0502 | -0.138 | -0.227
CGCAGAT | 0.0825 | 0.0329 | 0.37 | 0.687 | 0.0613 | 0.951 | 0.136 | 0.0718 | -0.169 | 0.125
ATCGGTA | 0.0263 | 0.096 | 0.0273 | -0.0751 | 0.0713 | 0.156 | 0.0861 | 0.00556 | 0.0597 | -0.00427
CCCTGTA | -0.103 | -0.129 | -0.228 | -1.23 | -0.00144 | -0.529 | -0.432 | -0.065 | -0.0303 | -0.161
TCTGAGG | 0.186 | 0.123 | 0.494 | 1.33 | 0.0162 | 1.54 | 0.18 | 0.202 | -0.183 | 0.0309
GCCAAAA | -0.0503 | 0.0309 | 0.182 | 0.487 | 0.0147 | 0.0877 | 0.149 | 0.261 | -0.0553 | 0.0294
AAGGATT | 0.0135 | -0.0996 | 0.113 | 1.37 | -0.13 | 1.66 | -0.022 | -0.00189 | -0.139 | 0.0279
CCAGATG | 0.0744 | 0.00913 | 0.258 | 1 | 0.0188 | 0.897 | 0.22 | -0.107 | -0.0922 | -0.0425
ATACCGA | 0.0123 | -0.0244 | -0.402 | -0.624 | -0.0313 | -1.05 | 0.0234 | -0.0544 | -0.11 | -0.0912
CCAGAGA | 0.146 | 0.0414 | 0.326 | 0.64 | 0.127 | -0.375 | 0.21 | 0.191 | 0.182 | 0.172
TCTGGGG | 0.0458 | -0.202 | 0.232 | 0.293 | -0.155 | 0.111 | 0.187 | 0.134 | -0.0222 | -0.0391
TCGACCT | -0.126 | 0.0252 | -0.00336 | 0.00625 | -0.0565 | 0.675 | -0.137 | -0.0146 | 0.000405 | 0.0264
AATCGAC | 0.0959 | -0.0325 | 0.05 | 0.208 | 0.078 | 0.283 | 0.11 | 0.19 | 0.0922 | 0.15
AGTCCGA | -0.0271 | -0.0449 | -0.0934 | 0.157 | 0.0445 | -0.596 | -0.0426 | -0.102 | 0.0434 | 0.00917
TCCCCGC | 0.0218 | -0.0553 | -0.274 | -0.717 | -0.14 | -0.575 | -0.0505 | -0.0888 | -0.0228 | -0.0573
CAGGCCG | -0.00664 | -0.122 | -0.893 | -0.438 | 0.0341 | -0.945 | 0.153 | -0.0433 | 0.0552 | -0.236
CGTAAAG | 0.0554 | -0.0518 | -0.622 | -0.415 | -0.0296 | -1.1 | 0.118 | -0.123 | -0.0399 | -0.111
GTAATTA | -0.102 | 0.0124 | 0.182 | 0.757 | -0.0601 | 1.52 | -0.0169 | 0.045 | 0.0466 | -0.0548
ATTTTTA | -0.321 | -0.277 | -0.222 | -2.26 | -0.0603 | -0.684 | -0.62 | -0.162 | -0.145 | -0.151
TCAGTCC | 0.00271 | 0.0764 | 0.304 | -0.14 | -0.0259 | 0.282 | 0.0295 | 0.0528 | -0.0453 | 0.0438
ATACAAG | 0.172 | 0.0558 | -0.793 | -0.455 | 0.0572 | -1.18 | 0.187 | 0.0971 | -0.00787 | -0.0557
TAGCACA | 0.00615 | 0.00655 | -0.0583 | -2.24 | -0.045 | 0.107 | -1.01 | 0.00405 | 0.0854 | 0.045
GTCGCAT | -0.0565 | 0.133 | 0.522 | 1.15 | -0.116 | 1.76 | 0.142 | 0.125 | -0.00186 | 0.207
AATCTAA | 0.0103 | 0.157 | -0.064 | -0.485 | 0.0143 | -0.438 | -0.0438 | 0.0699 | 0.0803 | 0.0846
AGTTGTT | -3.29 | -2.85 | -2.46 | -2.39 | -1.29 | -0.924 | -3.59 | -0.677 | -0.032 | -1.71
CCTGCAC | -0.135 | -0.0929 | -0.558 | -0.73 | -0.134 | -0.923 | 0.076 | -0.0623 | -0.063 | -0.235
TCCCGGT | -0.0356 | -0.117 | 0.391 | 0.759 | -0.0727 | 1.3 | 0.041 | 0.089 | -0.0338 | -0.109
TGTACAC | -0.00427 | 0.0628 | 0.315 | 0.751 | -0.0724 | 1.32 | 0.0879 | 0.0545 | 0.0254 | 0.101
